# Assay results: publication PMC12136788
# This is one part of the list.
# T1: UNK ZnF1-3 (human, UniProt Q9C0B0 31-174)
# T1 sequence: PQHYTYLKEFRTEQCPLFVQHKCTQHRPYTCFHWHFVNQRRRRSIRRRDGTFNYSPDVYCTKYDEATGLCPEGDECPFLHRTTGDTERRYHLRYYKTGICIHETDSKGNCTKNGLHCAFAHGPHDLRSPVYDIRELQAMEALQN
# B1: chr5:128448638:128448639:+_ENSG00000066583_ENST00000173527|hu_mus|FALSE|FALSE (ssRNA)
# RNA: GGGAGUUCUACAGUCCGACGAUCGGCACUCGCCUUAAUUAGGUUCUGAAUUUCCUUGAACUUCGGGUGGUCUUUGUCAGCCACCAGCUGUAGGAGGACAGCCUCACUAGUGGUCACGAUGAUCCCAGUGCGGGCAAGACGCUCCAACAGAGGAUUGAGCAUCA
# B2: chr3:176767854:176767855:-_ENSG00000177565_ENST00000430069|hu_hu|hu_hu_hu_mus_False|28_78 (ssRNA)
# RNA: GGGAGUUCUACAGUCCGACGAUCGACAUCCUUGUUACUGGGCACGUCCUGCCCUCCUUCUCGUAUACAGUGUCUAAGCACGAGCUGCGUAGGGCCACUCGUGCUGUUCUCACUAAGGUUCCAGAUUCUUGCCGUGGAGUCUCCCAACAGAGGAUUGAGCAUCA
# B3: chr5:10263280:10263281:+_ENSG00000150753_ENST00000503026|hu_hu|motif|central (ssRNA)
# RNA: GGGAGUUCUACAGUCCGACGAUCGAGGGCCAUGGGGAUGACCUCCAGUGCGUCGGCAAACGCUCUCAUGGCAUACUGUUCGGAGGUGGGGCACUUAUCCGCCUCUUGGCUAACUGCCAGGGCACAGGAUAUCUCAGCAGCCCCCAACAGAGGAUUGAGCAUCA
# B4: 120789170_120789290_320_CDS_ENSMUSG00000027272_ENSMUST00000028728|mouse|control|control (ssRNA)
# RNA: GGGAGUUCUACAGUCCGACGAUCUUUCUCUAAGCAAAUAUCCGGAUCCUCUCCAAAUAAGUACCACUCCAAAGGAGUGAGUAUUGACAUCUGUACACUCUCUUCUUGCUUUUCCAAAUCUGGGUCCAUCUCAGCAAAAUAAAUCAACAGAGGAUUGAGCAUCA
# B5: chr3:100058692:100058693:+_ENSG00000114021_ENST00000480073|hu_mus|FALSE|FALSE (ssRNA)
# RNA: GGGAGUUCUACAGUCCGACGAUCAUAGUCAGGAAAGUAGGUUGUUCCAUAUGGAGAAUUGAAGCACUCAGGCAGAGAAACUAUGUUGGCACCUUGCUUUGCUGCCUCCCGCACUAGGCUACAAGCCCGGGUAAGGUUAUCUGACAACAGAGGAUUGAGCAUCA
# B6: 66472166_66472286_2592_CDS_ENSG00000173898_ENST00000309996|human|control|control (ssRNA)
# RNA: GGGAGUUCUACAGUCCGACGAUCCUCGCUGAGCAUGGUGUAGAGCGCCAGGGCUGCCUCCAAGGCCCGCGCUCGCUCGCCUGCCCGGGCCUGCAGCUCCUCGUAGUGCCGCUCCAGGGUGGGCACCCGGCUCUGCACCUCGGGCAACAGAGGAUUGAGCAUCA
# B7: chrX:140365796:140365797:-_ENSMUSG00000031285_ENSMUST00000033642|mus_mus|mus_mus_mus_hu_False|18_38 (ssRNA)
# RNA: GGGAGUUCUACAGUCCGACGAUCCUUCUCAUUACUCAGUGCCUGCAAGGUUCUGGUUCGGUAGAAGCUACAGUGGGCGCUGUGAGUGGGGCUAGGCAGUCCAUUCAUCCGGGAGCCUCUCAUAUUUCUGGAUGUCUUAUCUCUCAACAGAGGAUUGAGCAUCA
# B8: chr22:32894248:32894249:+_ENSG00000100225_ENST00000397426|hu_hu|motif|central (ssRNA)
# RNA: GGGAGUUCUACAGUCCGACGAUCGGGAAGUGUUGGUCUUUGGUCAUAUUCACCCCCGAUAAUUCCUGGAGGAAGGCGGGAGCGGGGAAAUGGCCUAGGGUGCAAGGGGUUGGGAUAGAAUGGAAUGGUGUGAGUUGACGAUGGCAACAGAGGAUUGAGCAUCA
# B9: chr1:214814342:214814343:+_ENSG00000117724_ENST00000366955|hu_hu|FALSE|FALSE (ssRNA)
# RNA: GGGAGUUCUACAGUCCGACGAUCGGCACUUAAGGUUUCAGCAACAACAUUCUGGUGAGCAGAAGUGUCUUCCUGUAACUUACUAAUGCGCUGACUUGUUUCAGCCACAAAACUUUGAUGCAUCUGUUCUGCUUUCAUGAGAUUCAACAGAGGAUUGAGCAUCA
# B10: chr5:119214657:119214658:+_ENSMUSG00000018076_ENSMUST00000100816|mus_hu|FALSE|FALSE (ssRNA)
# RNA: GGGAGUUCUACAGUCCGACGAUCUUUUAAAGUUUUUUUGUAGGGGUUUUUUAUUUUUUGUGUUUUUUUUCUUUUUCUGCUUAGAAUUGGGUUUCUAGGGAAGAAAAGCCCCUGCAUUAAAAACAGCCCAUUUAAAAAAAAAAUCAACAGAGGAUUGAGCAUCA
# B11: chr3:176740097:176740098:-_ENSG00000177565_ENST00000430069|hu_mus|hu_hu_hu_mus_True|68_108 (ssRNA)
# RNA: GGGAGUUCUACAGUCCGACGAUCUGUUUUUUACACCACAAAAGGAGGCACUUUCAGUAUCUGCAAAAGGUAUUUAAUCCUAAAACAUACUCACCUAGAGGAUAACUCAGGAAAACAAUCUGUUACACUCUAAGACCUACUCCACAACAGAGGAUUGAGCAUCA
# B12: chrX:12717583:12717584:+_ENSMUSG00000031010_ENSMUST00000089302|mus_hu|FALSE|FALSE (ssRNA)
# RNA: GGGAGUUCUACAGUCCGACGAUCUUCAGCAUUGGGUACAUUAAUAUUACUAUUGUAAGCGUAAUUAAGAAGGUGUCUUAAAAGAGUAAAGUAGUCGCCUGAGUGUUUAGCUCUCUCUCUUGCUGUGCUCCCCAAAACAGUAAACAACAGAGGAUUGAGCAUCA
# B13: chr7:75932113:75932114:+_ENSG00000106211_ENST00000248553|hu_hu|hu_hu_hu_mus_False|8_28 (ssRNA)
# RNA: GGGAGUUCUACAGUCCGACGAUCCUGCGACCACUCAUCGGGCAACCGGGGCACCCCGAAAGCUUGAUCGAAGAGGCGGCUGUGUGCAGGGUACCAGUCCCGGAAUGCCCAGCUGGGCGGGCUCCGCAGCGAGAAGGAGGGCACCAACAGAGGAUUGAGCAUCA
# B14: chr15:59961163:59961164:-_ENSG00000140299_ENST00000607373|hu_hu|FALSE|FALSE (ssRNA)
# RNA: GGGAGUUCUACAGUCCGACGAUCGCCAACGUAUUCCAUGGGGACAAGUUCUGCUAGUUCUGCCAAAUUAAACACGUAUCUAAUUUUUUGGCUGAAUUUCGAGCUAAUAAAUGGUCUUGUAACAGCCAGAAGUGUUCUGAUAAACAACAGAGGAUUGAGCAUCA
# B15: chr7:141445308:141445309:+_ENSG00000106028_ENST00000265304|hu_hu|motif|central (ssRNA)
# RNA: GGGAGUUCUACAGUCCGACGAUCUAUGAUUGUUGUUGCUUGUCGCCUCACAUUAUUUUUAUCCAUGUAUUCACCAUAGUCGGUUUUCCCUUCCAAAUAAAUUCGAGACCCCUUUUUCACAUAUUGAUAUGCCACGUCUCUGAGCAACAGAGGAUUGAGCAUCA
# B16: chr6:48548902:48548903:+_ENSMUSG00000052751_ENSMUST00000163452|mus_mus|motif|central (ssRNA)
# RNA: GGGAGUUCUACAGUCCGACGAUCAAGGAACAAAACAAGACCCAGUAGGCAGAAGUCAUAGGAAAGCAGAAUCCAAUCACGGUAAGUAAGAAAUGUCUAACAAUUAGACUCGCCCUACGAUAGAAGUAGUGCCUUCUGGAGGUACAACAGAGGAUUGAGCAUCA
# B17: chr3:10015032:10015033:+_ENSMUSG00000027533_ENSMUST00000029046|mus_mus|mus_mus_mus_hu_True|18_38 (ssRNA)
# RNA: GGGAGUUCUACAGUCCGACGAUCGUUUUUACCAUCACAAGUGAUGAUACAAUCUGGCUUGGCCAUUGCGCCCAUUUUUCGCAAAGCUAUUCCCACUCCUAGCUCUUUCAUGUAUUCCUCAAAGCCGUUGCUGUCCACCAGGCGCAACAGAGGAUUGAGCAUCA
# B18: chr14:76904430:76904431:+_ENSMUSG00000022010_ENSMUST00000022587|mus_mus|mus_mus_mus_hu_True|1_8 (ssRNA)
# RNA: GGGAGUUCUACAGUCCGACGAUCUGCAGCCAAAAACACCCUCGUGGAAAAAAAGAGGGAACACCAGCAGCCUUGUAUAAGCUAGAUAAAAUCUUCUGGCUUUCCGCAGCCCAGGGAGAAACAGAAAUGGUGCUGGCUCGAGUGCAACAGAGGAUUGAGCAUCA
# B19: chr10:121586235:121586236:+_ENSG00000198825_ENST00000369080|hu_mus|FALSE|FALSE (ssRNA)
# RNA: GGGAGUUCUACAGUCCGACGAUCAGGUUGCCGAUGUUCACAUUGGAUUUGGUCUGCUUUACUUUUUGAUUUAGAGAUGAAAAUUUGCUCAUUAAAAAGCUUUUCCCCUGGGCAAGAGAGCCUUGGUUUUGAGAUCUGAUACCACAACAGAGGAUUGAGCAUCA
# B20: chr10:7368923:7368924:-_ENSMUSG00000019795_ENSMUST00000163085|mus_hu|FALSE|FALSE (ssRNA)
# RNA: GGGAGUUCUACAGUCCGACGAUCCAUGUAUGGGUUACAUUUUGCAUAGUGGGAGCGGUCUGUAGCCAGCAUCACUUCAAAUACUUUAUCUGUCUUGAUGAUUCCAUUUUUGCGGAGAUUGUGGAUUAGCUCCGAGUGGCUGGCCAACAGAGGAUUGAGCAUCA
# B21: chr11:69548761:69548762:-_ENSMUSG00000005198_ENSMUST00000058470|mus_hu|FALSE|FALSE (ssRNA)
# RNA: GGGAGUUCUACAGUCCGACGAUCAGAUGUCGGUGAGUAGCUGGGAGACGUUGGCGAGUAGCUAGGGGAAGUGGGCGAGUAGCUAGGGGAAGUGGGUGAGUAGCUGGGAGAGGUGGGCGAGUAGCUGGGAGAGGUGGGCGAGUACAACAGAGGAUUGAGCAUCA
# B22: chr18:47008509:47008510:-_ENSG00000177576_ENST00000318240|hu_mus|FALSE|FALSE (ssRNA)
# RNA: GGGAGUUCUACAGUCCGACGAUCGCUCACACGGACCUUCUAUUUGUUCAUAUCAGUAAAUUGGAAUAAUAGAAAUGAAAGCUACUUUAAUGAAAAAGAAACUCAGGGGUGAGAUCAUUAAAUAUAACUACUGGAAUUUUAAAUCAACAGAGGAUUGAGCAUCA
# Target: T1, UNK ZnF1-3
# Experiment: nsRBNS (natural sequence RNA bind-n-seq); RBNS binding buffer (assumed for nsRBNS): 25 mM Tris pH 7.5, 150 mM KCl, 3 mM MgCl2, 0.01% Triton X-100, 500 ug/ml BSA, 20 U/ml SUPERase-In, 4 C; UNK is unkempt and MSI1 is Musashi-1; names of the RNAs are library labels; protein concentration not given here; high values mean tight binding
row,Binder,binding signal [enrichment R]
1,B1,0.754
2,B2,0.391
3,B3,0.896
4,B4,1.13
5,B5,1.37
6,B6,0.291
7,B7,0.596
8,B8,1.07
9,B9,0.92
10,B10,0.406
11,B11,0.907
12,B12,1.01
13,B13,0.855
14,B14,1.27
15,B15,0.521
16,B16,2.07
17,B17,0.666
18,B18,2.03
19,B19,0.953
20,B20,0.705
21,B21,1.44
22,B22,2.82
